About 65 (0.1%) of roughly 45,000 compounds were called active. The call rests on the fitted dose curve; in most records, active means well fitted activation curve with a large enough effect; inconclusive means small, poorly fitted or top-dose-only effect; inactive means no such curve, though single readings can be large or run the other way. The list shows a part of the results.

These results are taken from PubChem BioAssay AID1159614 (National Center for Advancing Translational Sciences (NCATS), 2016).

UniProt P54803, sequence (P54803 whole entry, looked up): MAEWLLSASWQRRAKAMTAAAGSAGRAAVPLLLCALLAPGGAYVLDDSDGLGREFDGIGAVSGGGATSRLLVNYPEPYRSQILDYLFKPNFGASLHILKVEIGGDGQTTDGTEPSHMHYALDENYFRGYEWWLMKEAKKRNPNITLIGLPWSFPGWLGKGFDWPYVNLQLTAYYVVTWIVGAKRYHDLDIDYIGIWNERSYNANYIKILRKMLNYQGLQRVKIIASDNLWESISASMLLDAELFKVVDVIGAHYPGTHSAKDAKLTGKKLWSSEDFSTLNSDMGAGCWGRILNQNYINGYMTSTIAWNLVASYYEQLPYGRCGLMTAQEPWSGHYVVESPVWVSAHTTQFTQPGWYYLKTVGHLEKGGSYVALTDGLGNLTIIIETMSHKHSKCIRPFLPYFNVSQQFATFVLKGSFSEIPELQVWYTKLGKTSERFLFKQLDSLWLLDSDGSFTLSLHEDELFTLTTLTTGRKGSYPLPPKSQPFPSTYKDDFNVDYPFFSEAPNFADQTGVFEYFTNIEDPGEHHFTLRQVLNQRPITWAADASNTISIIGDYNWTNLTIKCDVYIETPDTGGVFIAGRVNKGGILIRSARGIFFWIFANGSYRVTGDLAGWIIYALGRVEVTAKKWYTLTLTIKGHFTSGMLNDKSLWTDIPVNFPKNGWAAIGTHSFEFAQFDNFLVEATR

For the assay, the target named is Galactocerebrosidase (Homo sapiens) (UniProt P54803). Briefly: A Novel Cell-Based Assay to Identify Small Molecules for B -Galactocerebrosidase. Further: 0% is about no effect; nearly all actives have a fitted effect of over 65% in size. The settings on record: 145M-Twi-hGALC-G270D cells (Twitcher mouse brain line with human GALC G270D), HMU-beta-Gal fluorescence, 48 h; series mostly up to 57.5 µM; activation: at the top concentration. The method in brief:
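Live 145M-Twi cells (Twitcher mouse brain-derived, GALC-null) stably expressing human GALC-G270D, with a wild-type GALC line, were compound-treated. Residual GALC activity was then read as fluorescence from 0.1 mM final HMU-β-gal at pH 5.2; higher signal means activation.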
For `COc1ccc(NC(=O)C(c2ccccc2)N(C)C(=O)/C=C\c2ccc3c(c2)OCO3)cc1` (stereo not given), the “activation” value was inactive: -13.8%. With `CCOc1ccc(NC(=O)N2CC3CCCN3c3ccccc32)cc1` (stereo not given) the figure was inactive: -8.24%; with `CC(=O)NNc1ncnc2c1cnn2-c1ccccc1`, inactive: -12.9%.

`Cc1ccccc1OCC(=O)Nc1c(C(=O)Nc2ccccc2F)oc2ccccc12`: the “activation” value was inactive: -15.2%. On to `Cc1ccccc1NS(=O)(=O)c1ccc2[nH]cc(C(=O)NCCc3ccccc3)c(=O)c2c1`, for which the “activation” value is inactive: -15%. On to `COC(=O)c1cnc(N2CCN(c3ccc(OC)cc3)CC2)c2ccccc12`, for which the “activation” value was inactive: -10.9%. In the case of `COC(=O)c1c(-c2ccc(Cl)cc2)noc1N1CCN(c2ccc(C(C)=O)cc2)CC1`, the “activation” value is inactive: -16.3%. With `CCCNC(=O)CCc1c(C)nc2nc(CNC(=O)c3ccccc3)nn2c1C` the figure was inactive: -6.68%; with `CCCCc1ccc(NC(=O)CSc2nc3ccccc3nc2N2CCCCC2)cc1`, inactive: -1.96%. Consider `CCOC(=O)c1ccc(NC(=O)CS(=O)(=O)Cc2nc(-c3ccc(C)cc3)oc2C)cc1`, for which the “activation” value is inactive: -16.8%. With `Cc1ccc(NC(=O)CN2C(=O)CC(c3ccco3)Sc3ccccc32)cc1Cl` (stereo not given) the figure was inactive: 1.54%. With `COc1ccc(NC(=O)c2oc3ccccc3c2NC(=O)c2cc3ccccc3o2)c(OC)c1` the figure was inactive: 6.15%. As to `Cc1ccc(F)cc1NC(=O)CSc1nc(-c2cccs2)cc(C(F)(F)F)n1`, the “activation” value is inactive: -10.2%. With `CCOc1ccc(NC(=O)C(CC)n2nc(C)c3c(C)n(-c4ccccc4)nc3c2=O)cc1` (stereo not given) the figure was inactive: -12.9%; with `COc1cc(C(CC(=O)NCc2ccccc2Cl)N2Cc3ccccc3C2=O)cc(OC)c1OC` (stereo not given), inactive: -8.51%; with `CCn1c2ccccc2c2cc(CN3CCN(Cc4cccc(Cl)c4)CC3)ccc21`, inactive: -23.2%.

In the case of `COc1cccc(NC(=O)CCNC(=O)Cn2cnc3ccccc3c2=O)c1`, the “activation” value is inactive: -32.7%.

Consider `COC(=O)c1ccccc1NC(=O)CCCn1nc(C)c2c(C)n(-c3ccccc3)nc2c1=O`, for which the “activation” value is inactive: -5.21%.

On to `CCOc1ccccc1CNC(=O)c1ccc(-n2c(C)cc3c2CCC(C)C3)cc1` (stereo not given), for which the “activation” value was inactive: -19.2%.

In the case of `Cc1ccc(-c2onc(C)c2C)cc1S(=O)(=O)N1CCN(c2ccccc2F)CC1`, the “activation” value is inactive: -17.9%.

As to `COc1cc(OC)c(NC(=O)Nc2ccc3c(c2)N(C)C(=O)c2ccccc2S3)cc1Cl`, the “activation” value is inactive: -20.8%.

In the case of `COc1cc(OC)cc(-n2c(=O)c3sccc3n(Cc3ccc(F)cc3)c2=O)c1`, the “activation” value was inactive: 1.81%. As for `Cc1cc(Cl)ccc1NC(=O)CSc1nc2c(c(=O)[nH]1)CCC2`, the figure is inactive: -10.3%.

Regarding `CCCOc1ccc(Oc2nc(NC)nc(N3CCOCC3)n2)nn1`, the “activation” value is inactive: 8.13%. Take `COC(=O)c1sc(N2C(=O)c3oc4ccc(C)cc4c(=O)c3C2c2ccc(OC)cc2)nc1C` (stereo not given): the “activation” value is inactive: -15.3%. With `Cc1ccc(NC(=O)C(=O)NCC(c2cccnc2)N2CCN(Cc3ccccc3)CC2)cc1Cl` (stereo not given) the figure was inactive: -10.7%; with `Cc1ccc(C(=O)O)cc1NC(=O)c1nsc2ccccc12`, inactive: -1.31%; with `Cc1ccc(CNC(=O)c2cc(-c3ccc(C)c(C)c3)nc3ccccc23)cc1`, inactive: 4.98%. `COc1ccc(CCNC(=O)CN2C(=O)COc3ccc(S(=O)(=O)N4CCCC4)cc32)cc1OC`: the “activation” value is inactive: -4.5%. As for `Cc1ccc(Cl)cc1N1CCN(c2nc3ccccc3c3nc(-c4cccnc4)nn23)CC1`, the figure is inactive: 1.07%; as for `CCOc1ccc(NC(=O)Cn2c(=O)n(CCCCC(=O)NCCc3ccc(Cl)cc3)c(=O)c3ccccc32)cc1`, inactive: 0.638%. As for `CCOc1ccc(C(=O)Nc2ccc3oc(-c4ccc(C)cc4C)nc3c2)cc1Br`, the figure is inactive: 0.634%.

Take `O=C(Nc1cccc(Cl)c1)N1CC2CCCN2c2ccccc21` (stereo not given): the “activation” value was inactive: -14.2%. Consider `O=C(C1CCC(CNS(=O)(=O)c2ccc(Br)s2)CC1)N1CCN(c2ccc(F)cc2)CC1` (stereo not given), for which the “activation” value is inactive: -33%.

With `CCc1ccccc1NC(=O)CC1NCCNC1=O` (stereo not given), the “activation” value is inactive: -11.6%. `COc1ccc(-c2nc3n(n2)C(c2ccccc2OC)C(C(=O)Nc2cccnc2)=C(C)N3)cc1` (stereo not given): the “activation” value is inactive: -14.7%. Turning to `CCOc1ccccc1NC(=O)c1c2c(nc3ccccc13)C(=O)N(C1CCCCC1)C2`, the “activation” value was inactive: -8.77%. Turning to `CCOc1ccc(-n2c(SCC(=O)NCc3ccccc3)nc3n[nH]c(C)c3c2=N)cc1`, the “activation” value is inactive: -6.98%.

As for `CCOC(=O)N1CCc2c(sc(NCc3ccc(N(CC)CC)cc3)c2C(=O)Nc2cc(OC)ccc2OC)C1`, the “activation” value was inactive: -15.7%. For `O=S(=O)(NCC(c1cccs1)S(=O)(=O)c1ccccc1)c1ccccc1` (stereo not given), the “activation” value is inactive: -15.7%. On to `Nc1nnc(-c2cccc(Cl)c2Cl)c(N)n1`, for which the “activation” value was inactive: -18.2%. As for `COc1ccc(CNC(=O)c2ccc3c(c2)nc2n3CCCCC2)cc1`, the figure is inactive: -15.2%; as for `Cc1ccc(NS(=O)(=O)c2ccc3c(c2)N(C)C(=O)CC(=O)N3C)cc1Cl`, inactive: -3.01%; as for `Cc1ccc(-n2c(=O)c3ccc(C(=O)NCc4ccco4)cc3n(CC(=O)Nc3ccc(C)c(F)c3)c2=O)cc1`, inactive: -1.37%. Regarding `CCC1CN(C(=O)N2CCC(C(=O)N3CCN(c4ccccc4)CC3)CC2)c2ccccc2O1` (stereo not given), the “activation” value was inactive: -8.2%. As for `Cc1cc(C)n(C(C)CC(=O)Nc2ccc(Cl)cc2C)n1` (stereo not given), the figure is inactive: -6.75%. `CCCCC(=O)N1CCc2cc(OC)c(OC)cc2C1COc1ccc(C(=O)OCC)cc1` (stereo not given): the “activation” value is inactive: -16.5%. For `Cc1cccc(C(=O)n2nc(C)c(S(=O)(=O)N3CCOCC3)c2C)c1`, the “activation” value is inactive: 45.8%. As for `COc1ccc(Cn2ccc3nc(C)c(C(=O)Nc4cc(OC)c(OC)c(OC)c4)cc3c2=O)cc1`, the “activation” value is inactive: -27%.

As to `CCOc1ccccc1NS(=O)(=O)c1cc2[nH]c(=O)c(=O)[nH]c2cc1C`, the “activation” value was inactive: 1.44%. As to `CCOc1ccc(Sc2cc(C(=O)NCc3ccc(C)cc3)c3ccccc3n2)cc1`, the “activation” value is inactive: -10.1%. With `CC[C@@]1(O)C(=O)OCc2c1cc1n(c2=O)Cc2cc3c(CN(C)C)c(O)ccc3nc2-1` the figure was inactive: -6.7%; with `CCOC(=O)c1cc(-c2ccc(C)cc2)n(CCCC(=O)Nc2cc(C)ccc2C)c1`, inactive: -23.2%; with `Cc1cc(C)c(S(=O)(=O)NCCc2sc3nc(-c4ccc(F)cc4)nn3c2C)c(C)c1`, inactive: 0.545%. As for `O=C(NCc1ccco1)c1ccc2c(c1)N(Cc1ccccc1)C(=O)c1ccccc1S2`, the figure is inactive: 9.89%.

For the compound `CCC1CCCCN1C(=O)c1c[nH]c2ccc(S(=O)(=O)Nc3cccc(OC)c3)cc2c1=O` (stereo not given), the “activation” value is inactive: -22.6%. Take `O=C(NC1CCCCC1)c1ccc(CSc2nc3cccnc3n2Cc2cccc(F)c2)cc1`: the “activation” value was inactive: -12.9%. Consider `Cc1cc(C)cc(-n2ccn(CC(=O)c3ccc(F)cc3)c(=O)c2=O)c1`, for which the “activation” value is inactive: -10.8%. Take `Nc1c(C(=O)NCc2cccs2)nnn1CC(=O)Nc1cccc(F)c1`: the “activation” value was inactive: -14.1%. With `COC(=O)c1scc(-c2ccc(C)cc2)c1S(=O)(=O)N1CCN(c2ccc(F)cc2)CC1` the figure was inactive: -1.3%; with `Cc1ccc(N(C)S(=O)(=O)c2ccc3[nH]c(=O)ccc3c2)cc1`, inactive: -8.82%. With `O=C(O)c1ccc(NS(=O)(=O)c2ccc(Cl)c(C(=O)Nc3ccccc3)c2)cc1` the figure was inactive: -11.5%; with `Cc1ccc(NC(=O)c2sc3ncnc(N(C)C4CCCCC4)c3c2C)c(C)c1`, inactive: -11%; with `O=C(c1ccc(CS(=O)(=O)c2ccc(Br)cc2)o1)N1CCN(c2ccc(F)cc2)CC1`, inactive: -16.9%. Consider `CCOc1ccc(NC(=O)CCc2c(C)nc3cc(-c4ccccc4OC)nn3c2C)cc1`, for which the “activation” value was inactive: -23.8%. Take `COC(=O)c1ccc(CSc2c(C(C)C)cnc3c2c(=O)n(C)c(=O)n3C)cc1`: the “activation” value is inactive: -14.2%.

Turning to `Cc1cccc(C2=Nc3ccccc3N=C(c3cc(Cl)ccc3O)C2)c1`, the “activation” value is inactive: -7.91%.

For the compound `Cc1oc2c(cc(NS(=O)(=O)c3ccc(C(C)C)cc3)c3ccccc32)c1C(=O)OCc1ccccc1`, the “activation” value was inactive: 5.56%.

`N#C/C(=C\c1ccc(OCc2ccc(Cl)cc2Cl)cc1)c1nc2ccccc2[nH]1`: the “activation” value was inactive: 14.9%. As for `COc1ccc(NC(=O)c2cnn(-c3ccc(C)c(C)c3)c2C2CCNCC2)cc1OC`, the figure is inactive: -8.1%. As for `O=C(Nc1nc2n(n1)C(c1ccc(F)cc1)C=C(c1ccc(Cl)cc1)N2)c1ccc([N+](=O)[O-])cc1` (stereo not given), the figure is inactive: -13.5%. On to `CCOc1ccc(-n2c(C)nc3cc(C(=O)NC4CCCC4)ccc32)cc1`, for which the “activation” value is inactive: -18.9%. Turning to `COc1ccccc1CC(=O)Nc1ccc2nc(Nc3cccc(C(F)(F)F)c3)cc(C)c2c1`, the “activation” value was inactive: -13.1%.

Regarding `CCCNC(=O)Cn1nc(-c2ccc(OC)cc2)c2cnc3ccc(F)cc3c21`, the “activation” value was inactive: -4.86%. In the case of `Cc1cccc(NC(=O)/C(C#N)=C/c2ccco2)c1`, the “activation” value is inactive: -32.4%.

Regarding `COc1ccc(OC)c(CNC(=O)c2cc3c(Cl)nc4ccccc4c3s2)c1`, the “activation” value was inactive: -19.7%.

Take `CCOc1ccccc1CNC(=O)c1ccc(CS(=O)Cc2cccc(Cl)c2)o1` (stereo not given): the “activation” value was inactive: -7.46%. In the case of `COc1cccc(C2CC(=O)Nc3c2ccc(C)c3C)c1OC` (stereo not given), the “activation” value was inactive: -5.05%. As to `CCCC(CCC)(C(=O)OCC)C(=O)OCC`, the “activation” value is inactive: -13.2%. For the compound `CCOCCOC(=O)/C=C/c1ccc(OC)cc1`, the “activation” value is inactive: -14.8%. As for `CSc1ccc(C2C(C(=O)Nc3ccccc3)=C(C)Nc3nc4ccccc4n32)cc1` (stereo not given), the figure is inactive: -17.8%. As for `Cc1cccc(NC(=O)CSc2nnc(NC(=O)Nc3ccccc3)s2)c1C`, the figure is inactive: -6.59%; as for `CCc1ccc(NC(=O)NCCc2c(C)nn(C)c2C)cc1`, inactive: -6.99%; as for `COc1ccc(S(=O)(=O)c2c(Nc3ccccc3F)sc(C(=O)c3cccc(OC)c3)c2N)cc1`, inactive: -27.8%.

With `CCc1ccc(NC(=O)CC2C(=O)NCCN2C(=O)c2ccc(F)cc2)cc1` (stereo not given), the “activation” value is inactive: -5.33%. For `Cc1ccc(NC(=O)CSc2ncc(-c3ccccc3)[nH]2)cc1`, the “activation” value was inactive: -4.1%. As for `COc1cccc(NC(=O)CSc2nnc(-c3cccc(OC)c3)o2)c1`, the figure is inactive: -24.4%. As to `NC[C@H]1O[C@H](O[C@H]2[C@H](O)[C@@H](O[C@H]3O[C@H](CO)[C@@H](O)[C@H](N)[C@H]3O)[C@H](N)C[C@@H]2N)[C@H](N)[C@@H](O)[C@@H]1O`, the “activation” value was inactive: -6.42% [at 23.8 µM].

In the case of `Cc1ccccc1CNC(=O)C(=O)NCC(c1ccco1)S(=O)(=O)c1cccs1` (stereo not given), the “activation” value is inactive: -19.6%. As for `CSc1ccc(CNC(=O)Cn2nc(N3CCN(c4ccccc4)CC3)ccc2=O)cc1`, the figure is inactive: -13.7%; as for `Cc1ccc(OCC(=O)Nc2ccccc2C(=O)OCc2cc(=O)n3ccsc3n2)cc1`, inactive: -11.5%; as for `O=C(C1CCC(Cn2c(=O)c3sccc3n(Cc3ccccc3)c2=O)CC1)N1CCOCC1` (stereo not given), inactive: -31.7%. As for `O=C(NC1CC(=O)N(c2cccc(F)c2)C1)c1ccc2c(c1)OCO2` (stereo not given), the figure is inactive: -4.55%.

Consider `CC(=O)c1ccc(NC(=O)COc2ccccc2-c2nc(-c3ccc(C)cc3)no2)cc1`, for which the “activation” value was inactive: -16.7%. Regarding `O=C(Nc1cc2c(cc1C(=O)c1ccccc1Br)OCCO2)c1ccccc1`, the “activation” value was inactive: -10.6%.
